# Laboratory results reported in PubChem BioAssay.
# The shares of active, inactive and inconclusive entries below differ from those in the screen. Activity calls are given as the source filed them.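 How the source made its calls: active means viability at or under a set limit in both replicates, limit being median viability minus 3 SD (cut at about 48% in these data, passing the limit was not always enough); inconclusive means at or under the limit in just one replicate; inactive means at or above the limit in both replicates.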
# Test: H69AR cell proliferation blockers – human, duplicate replicates, primary screen (AID 580);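 further: 100% = mean luminescence of untreated wells and 0% = no signal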
# Details: H69AR lung tumor cells viability, ATP luminescence, 72 h; at 10 µM; hits give low values
row,SMILES,viability
1,CC(NCCC(c1ccccc1)c1ccccc1)c1ccccc1 (stereo unspecified),inconclusive: 1.54%
2,COc1cccc(-c2cc(C(=O)Nc3cc(C)n(Cc4ccc(Cl)cc4)n3)no2)c1,inconclusive: 52.1%
3,CC(C)(C)c1ccc(C(O)CCCN2CCC(C(O)(c3ccccc3)c3ccccc3)CC2)cc1 (stereo unspecified),inconclusive: 1.54%
4,COc1cccc2c1C(=O)c1c(O)c3c(c(O)c1C2=O)C[C@@](O)(C(=O)CO)C[C@@H]3O[C@H]1C[C@H](N)[C@H](O)[C@H](C)O1,inconclusive: 18%
5,CC[C@H]1CN2CCc3cc(OC)c(OC)cc3[C@@H]2C[C@@H]1C[C@H]1NCCc2cc(OC)c(OC)cc21,inconclusive: 23.5%
6,C1CCC(C(CC2CCCCN2)C2CCCCC2)CC1 (stereo unspecified),inconclusive: 1.55%
7,CCCn1nc(NC(=O)c2cccs2)c2cc3cc(OC)ccc3nc21,inconclusive: 63.1%
8,O=c1[nH]c2ccccc2n1CCCN1CCN(C(c2ccccc2)c2ccccc2)CC1,inconclusive: 11.2%
9,Brc1ccc2ncnc(Nc3ccc(N4CCOCC4)cc3)c2c1,inactive: 77.8%
10,Nc1nc(Cl)nc2c1ncn2[C@@H]1O[C@H](CO)[C@@H](O)[C@H]1O,inconclusive: 50.3%
11,CN1CCCN(C(c2ccccc2)c2ccc(Cl)cc2)CC1 (stereo unspecified),inconclusive: 44.8%
12,Cc1nnc(SCC(=O)Nc2sc3c(c2C#N)CCCC3)[nH]c1=O,inactive: 102%
13,CSc1ccc2c(c1)N(CCC1CCCCN1C)c1ccccc1S2 (stereo unspecified),inconclusive: 1.93%
14,CCCCCCCCNC(C)C(O)c1ccc(SC(C)C)cc1 (stereo unspecified),inconclusive: 1.16%
15,COc1ccc(-c2nc(C(N)=O)c3[nH]c(=O)n(-c4cccc(Cl)c4)c3n2)cc1OC,active: 1.2%
16,OCCN1CCN(CCCN2c3ccccc3Sc3ccc(C(F)(F)F)cc32)CC1,inconclusive: 1.03%
